# Assay results published in PubChem BioAssay (Tox21).
# Several values for one entry are separate records, joined by “and”; a condition that tells them apart may be missing. Equal values may be shown once. This list was built around the results that the source calls inconclusive (neither active nor inactive); the mix of calls is not that of the screen. For some assays here: A potency beside an inconclusive call is a rough fit, not a confirmed value. Activity calls are given as the source filed them. The call rests on the fitted dose curve; in most records, active means well fitted curve in the direction sought with a large enough effect in the repeat runs; inconclusive means weak or mixed curves; inactive means no such curve, though single readings can be large; an effect the other way counts as inactive or inconclusive.
# Assay: A CellTox Green Cytotoxicity Assay to monitor cytotoxicity in HEK293 cells - 40 hour (AID 1224871); further: nearly all actives have a fitted effect of over 45% in size; further: potency means the concentration at half of the fitted maximal effect
# Conditions: CellTox Green fluorescence; series mostly up to 76.8 µM; cytotoxicity increase: at the top concentration
# Summary of the method: (§1)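 Dead-cell fluorescence measured kinetically: asymmetric cyanine dye, HEK293, 600 cells/well, 5 h settle, 23 nL cpd/DMSO, 37 C, reads 0–40 h every 8 h.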
# On the % scale 0 is the no-effect control and ±100 the full control effect; tags describe the fitted curve by direction and shape.
Structure (SMILES),Potency,cytotoxicity increase
C#C[C@]1(O)CC[C@H]2[C@@H]3CCC4=CC(=O)CC[C@]4(C)[C@H]3CC[C@@]21C,"inconclusive: 26.8 µM [activator, single point]",–
CCN(CC)C1CCCCC1,–,inactive: -10.4%
CCOC(=O)C1OC1(C)c1ccccc1 (stereo not drawn),"inconclusive: 21.9 µM [activator, single point]",–
Clc1cccc2ccccc12,"inconclusive: 54 µM [activator, single point]",–
C/C=C/c1ccc2c(c1)OCO2,"inconclusive: 56 µM [activator, single point]",–
Cc1ccc(C)c2ccccc12,active: 38.9 µM,–
COc1c2c(cc3c1OCO3)CCN(C)C2,–,inactive: 2.73% [at 35.3 µM]
CC(C)N(C(=O)SCC(Cl)=C(Cl)Cl)C(C)C,"inconclusive: 48.3 µM [activator, partial curve, poor fit]",–
O=[N+]([O-])c1c2ccccc2cc2ccccc12,active: 5.43 µM,–
CNC(=O)Oc1cccc2c1OC(C)(C)O2,"inconclusive: 22.7 µM [activator, single point]",–
[O-][Cl+]O,"inconclusive: 24.5 µM [activator, single point]",–
CCOC(=O)NC(C)(C)Cc1ccc(Cl)cc1,"inconclusive: 26.8 µM [activator, single point]",–

# Assay: qHTS RealTime-Glo MT Cell Viability Assay in HEK293 cells - 16 hour (AID 1224872); further: nearly all actives have a fitted effect of over 50% in size; further: potency means the concentration at half of the fitted maximal effect; on activity change, negative = cytotoxicity: top concentration of the series differs between compounds
# Conditions: RealTime-Glo luminescence; series mostly up to 76.8 µM; activity change, negative = cytotoxicity: at the top concentration
# Summary of the method: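 Homogeneous bioluminescent viability format in HEK293 cells (600 cells/well). Following 5 h at 37 C/5% CO2, 23 nL compound was pintooled; the signal was measured repeatedly during 40 h incubation.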
Structure (SMILES),Potency,"activity change, negative = cytotoxicity"
O=C(NCc1cccnc1)Nc1ccc([N+](=O)[O-])cc1,active: 49 µM,–
CCN,–,inactive: 19%
c1ccc(OP(Oc2ccccc2)Oc2ccccc2)cc1,inactive,–
CC(C)C(Br)C(=O)NC(N)=O (stereo not drawn),–,inactive: 12.2% [at 35.3 µM]
O=c1[nH]c2ccccc2n1CCCN1CCC(n2c(=O)[nH]c3cc(Cl)ccc32)CC1,active: 9.52 µM,–
N#CCC#N,"inconclusive: 11 µM [rising, partial curve]",–
CC(C)N(C(=O)CCl)c1ccccc1,"inconclusive: 54.9 µM [cytotoxic, single point] and inconclusive: 49 µM [cytotoxic, single point]",–
CN(C)P(=O)(N(C)C)N(C)C,inactive,–
COc1ccc2c3c1O[C@H]1[C@H](O)CC[C@H]4[C@@H](C2)N(C)CC[C@@]341,–,inactive: 1.3%
CNC(=O)Oc1cccc2ccccc12,"inconclusive: 24.5 µM [cytotoxic, partial curve]",–
C[N+](C)(C)C,inactive,–
Brc1ccccc1,–,inactive: -3.91%
CC(C)OC(=S)S,"inconclusive: 49 µM [rising, partial curve]",–
O=C(CBr)c1ccccc1,–,inactive: 5.97%
C/C=C/C=O,–,inactive: 3.61%
CCCN(CCCl)c1c([N+](=O)[O-])cc(C(F)(F)F)cc1[N+](=O)[O-],"inconclusive: 34.7 µM [cytotoxic, partial curve]",–
CC(Cc1ccc(OCC(=O)O)cc1)NCC(O)c1csc(C(F)(F)F)n1 (stereo not drawn),–,inactive: 2.12%
O=[N+]([O-])c1cccc2cccc([N+](=O)[O-])c12,–,inactive: -5.8%
CNC(=O)Oc1cccc2c1OC(C)(C)C2,inactive,–
CCC(C)Nc1c([N+](=O)[O-])cc(C(C)(C)C)cc1[N+](=O)[O-] (stereo not drawn),"inconclusive: 49 µM [cytotoxic, partial curve]",–
N#Cc1cc(Br)c(O)c(Br)c1,inactive,–
CCN(CC)C(=O)SCc1ccc(Cl)cc1,"inconclusive: 63.5 µM [cytotoxic, partial curve, poor fit]",–
OCCBr,–,inactive: 3.18%
ClCBr,–,inactive: 8.82%
CN(C)C1CSSSC1,"inconclusive: 27.5 µM [rising, partial curve]",–
CO[C@@H]1[C@H](OC(=O)NC(=O)CCl)CC[C@]2(CO2)[C@H]1[C@@]1(C)O[C@@H]1CC=C(C)C,–,inactive: 13.2% [at 15.8 µM]
CC(=[OH+])/C=C(/C)[O-].CC(=[OH+])/C=C(\C)[O-].CC(=[OH+])/C=C(\C)[O-].[Fe],–,inactive: 13.5%

# Assay: qHTS RealTime-Glo MT Cell Viability Assay in HEK293 cells - 40 hour (AID 1224874); further: nearly all actives have a fitted effect of over 50% in size
# Conditions: RealTime-Glo luminescence; max response: stronger effect = lower value
# Summary of the method: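 600 HEK293 cells per well, dispensed already mixed with RealTime-Glo MT reagents. Compound dosing came 5 h later. The same wells were read for luminescence at 0, 8, 16, 24, 32 and 40 h of exposure at 37 C.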
row,Structure (SMILES),max response
1,C#C[C@]1(O)CC[C@H]2[C@@H]3CCC4=CC(=O)CC[C@]4(C)[C@H]3CC[C@@]21C,inactive: -4.36% and inactive: -16.3%
2,CC(C)N(C(=O)SCC(Cl)=C(Cl)Cl)C(C)C,inactive: -12% and inactive: 19.1%
3,O=[N+]([O-])c1c2ccccc2cc2ccccc12,inactive: 1.8%
4,[O-][Cl+]O,inactive: 2.38%

# Assay: A CellTox Green Cytotoxicity Assay to monitor cytotoxicity in HEK293 cells - 24 hour (AID 1224875); further: nearly all actives have a fitted effect of over 45% in size; further: potency means the concentration at half of the fitted maximal effect
# Conditions: CellTox Green fluorescence; series mostly up to 76.8 µM; activity change: at the top concentration
# Summary of the method: as §1
Structure (SMILES),Potency,activity change
C#C[C@]1(O)CC[C@H]2[C@@H]3CCC4=CC(=O)CC[C@]4(C)[C@H]3CC[C@@]21C,"inconclusive: 54.9 µM [activator, single point] and inconclusive: 26.8 µM [activator, single point]",–
CCN(CC)C1CCCCC1,–,inactive: -8.91%
CCOC(=O)C1OC1(C)c1ccccc1 (stereo not drawn),"inconclusive: 21.9 µM [activator, single point]",–
Clc1cccc2ccccc12,"inconclusive: 54 µM [activator, partial curve, poor fit]",–
C/C=C/c1ccc2c(c1)OCO2,"inconclusive: 56 µM [activator, single point]",–
Cc1ccc(C)c2ccccc12,"inconclusive: 38.9 µM [activator, partial curve]",–
COc1c2c(cc3c1OCO3)CCN(C)C2,–,"inactive: 3.78% [at 35.3 µM, stronger effect = higher value]"
CC(C)N(C(=O)SCC(Cl)=C(Cl)Cl)C(C)C,"inconclusive: 54.2 µM [activator, single point]",–
CNC(=O)Oc1cccc2c1OC(C)(C)O2,"inconclusive: 22.7 µM [activator, single point]",–
CCOC(=O)NC(C)(C)Cc1ccc(Cl)cc1,"inconclusive: 26.8 µM [activator, partial curve, poor fit]",–
